{"source": "PubChem BioAssay AID1508624", "about": "(National Center for Advancing Translational Sciences (NCATS), 2021)", "note": "About 120 (0.25%) of roughly 48,000 compounds were called active. Roughly 4% stayed inconclusive and do not appear here. Calls follow the shape of the dose curve; as a rule, active = well fitted activation curve with a large enough effect; inconclusive = small, poorly fitted or top-dose-only effect, or another doubt; inactive = no such curve, though single readings can be large or run the other way. This is one part of the list."}
{"experiment": "Primary qHTS for Identification of Small Molecule Activators of Huntingtin-Antisense Promoter Activity; also: nearly all actives have a fitted effect of over 55% in size", "conditions": "HEK293 HTT-AS promoter firefly luciferase reporter (activity 0% = vehicle and -100% = no light), 24 h; series mostly up to 57.5 µM; activity change, positive = activation: at the top concentration", "procedure,_shortened": "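Luminescence was read after Dual-Glo reagent and a 10 min room-temperature incubation. Values were normalized to vehicle (0% activity) and zero RLU (-100% activity). Reporter HEK293 cells had been exposed to compounds (up to 57.5 uM final) for 24 h.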"}
{"smiles": "O=C(NCc1ccc(F)cc1)C1CCCN(c2ncnc3onc(-c4ccc(F)cc4)c23)C1", "note": "(configuration not stated)", "activity change, positive = activation": "inactive: -22%"}
{"smiles": "Cc1ccc(Nc2c(-c3ccsc3)nc3cccc(C)n23)cc1", "activity change, positive = activation": "inactive: -3.47%"}
{"smiles": "CCOC(=O)CNC(=O)c1ccc(-c2nn(C)c(=O)c3ccccc23)cc1", "activity change, positive = activation": "inactive: 8.74%"}
{"smiles": "COc1ccc(Cl)cc1NC(=O)CSC1=Nc2ccccc2C2=NC(CC(=O)NC3CCCCC3)C(=O)N12", "note": "(configuration not stated)", "activity change, positive = activation": "inactive: -29.6%"}
{"smiles": "CCc1ccc(NCc2cc3ccc(OC)cc3n(CC(=O)Nc3ccc(C(C)C)cc3)c2=O)cc1", "activity change, positive = activation": "inactive: -15.2%"}
{"smiles": "COc1ccc2cc(-c3nc(Cl)c4c5c(sc4n3)CCCC5)c(=O)oc2c1", "activity change, positive = activation": "inactive: -7.1%"}
{"smiles": "COc1cccc(CNc2nccn(-c3cc(C)cc(C)c3)c2=O)c1", "activity change, positive = activation": "inactive: -25.2%"}
{"smiles": "CN(C)c1ccc(-c2nc3cnccn3c2Nc2cccc(C(F)(F)F)c2)cc1", "activity change, positive = activation": "inactive: -10.4%"}
{"smiles": "COc1ccc(NC(=O)Cn2c(=O)n(Cc3ccco3)c(=O)c3cc(OC)c(OC)cc32)cc1", "activity change, positive = activation": "inactive: -12.7%"}
{"smiles": "CCCCN(CCCNC(=O)c1ccc(Sc2ccc(Cl)cc2)c(NC(C)=O)c1)c1ccccc1", "activity change, positive = activation": "inactive: -24.4%"}
{"smiles": "Cc1ccc(NC(=O)CSC2=Nc3ccccc3C3=NC(Cc4ccccc4)C(=O)N23)cc1C", "note": "(configuration not stated)", "activity change, positive = activation": "inactive: -24.6%"}
{"smiles": "Cc1cc2c(cc1S(=O)(=O)CCC(=O)N1CCCC(C)C1)OCC(=O)N2", "note": "(configuration not stated)", "activity change, positive = activation": "inactive: -6.26%"}
{"smiles": "Cc1ccc(-n2ncc(C(=O)NCCN3CCOCC3)c2C2CCN(C(=O)OC(C)(C)C)CC2)c(C)c1", "activity change, positive = activation": "inactive: 2.16%"}
{"smiles": "COCCn1c(CCC(=O)Nc2ccc(C)c(Cl)c2)nc2cccnc21", "activity change, positive = activation": "inactive: -3.34%"}
{"smiles": "Clc1ccc2nc(NCc3ccccc3)c3nncn3c2c1", "activity change, positive = activation": "inactive: -3.33%"}
{"smiles": "CCSc1ncc(Cl)c(C(=O)Nc2ccc(S(=O)(=O)N3CCC(C)CC3)cc2)n1", "activity change, positive = activation": "inactive: -18.1%"}
{"smiles": "CC(=O)c1cccc(NC(=O)C2=CC(c3ccc4c(c3)OCO4)=NS(=O)(=O)N2C)c1", "activity change, positive = activation": "inactive: -17%"}
{"smiles": "Cc1cccc(CNC(=O)C(=O)Nc2ccccc2C)c1", "activity change, positive = activation": "inactive: 6.23%"}
{"smiles": "CC1CCCCN1CCCNC(=O)c1[nH]c2ccccc2c1Sc1ccc(Cl)cc1", "note": "(configuration not stated)", "activity change, positive = activation": "inactive: -6.58%"}
{"smiles": "COc1ccccc1CNC(=O)CCC1N=C2c3ccccc3N=C(SCC(N)=O)N2C1=O", "note": "(configuration not stated)", "activity change, positive = activation": "inactive: -35.1%"}
{"smiles": "Cc1ccc(CNC(=O)c2ccc(CSCc3ccccc3Cl)o2)cc1", "activity change, positive = activation": "inactive: -11%"}
{"smiles": "Cc1ccc(S(=O)(=O)NCC(c2ccc(N(C)C)cc2)N2CCc3ccccc32)cc1C", "note": "(configuration not stated)", "activity change, positive = activation": "inactive: -16.3%"}
{"smiles": "Cc1cccc(C)c1NC(=O)CSc1nc2ncccc2o1", "activity change, positive = activation": "inactive: -5.44%"}
{"smiles": "COc1ccc(Cn2c(CCC(=O)Nc3cccc(OC)c3)nc3cccnc32)cc1", "activity change, positive = activation": "inactive: -22%"}
{"smiles": "CC(=O)N1CCc2cc(CNC(=O)Nc3cc(Cl)ccc3C)ccc21", "activity change, positive = activation": "inactive: -19.4%"}
{"smiles": "CCc1ccc(CNC(=O)C2CCN(c3nc4ccccc4nc3C(F)(F)F)CC2)cc1", "activity change, positive = activation": "inactive: -13.1%"}
{"smiles": "CCN1C(=O)c2ccccc2Sc2ccc(NC(=O)Nc3ccccc3OC)cc21", "activity change, positive = activation": "inactive: -39.4%"}
{"smiles": "Cc1ccc(NC(=O)c2c(NC(=O)Cc3ccccc3)sc3c2CCC3)cc1", "activity change, positive = activation": "inactive: -26.1%"}
{"smiles": "Cc1ccc(C)c(OCCn2cc(C(=O)c3cccs3)c3ccccc32)c1", "activity change, positive = activation": "inactive: -30.7%"}
{"smiles": "CC(C)(C)CC(=O)OCC(=O)[C@@]1(O)CC[C@H]2[C@@H]3CCC4=CC(=O)C=C[C@]4(C)[C@H]3[C@@H](O)C[C@@]21C", "activity change, positive = activation": "inactive: -26.1%"}
{"smiles": "Cc1cccc(C(=O)N2CCc3cc(CNC(=O)c4ccc(Br)o4)ccc32)c1", "activity change, positive = activation": "inactive: -26.7%"}
{"smiles": "O=[N+]([O-])c1ccc(S(=O)(=O)NCc2nc3cccnc3n2Cc2ccccc2Cl)cc1", "activity change, positive = activation": "inactive: -28.2%"}
{"smiles": "COC(=O)c1cc(NC(=O)C2CCCN(S(=O)(=O)c3c(C)n[nH]c3C)C2)cc(C(=O)OC)c1", "note": "(configuration not stated)", "activity change, positive = activation": "inactive: -21.3%"}
{"smiles": "COc1ccc(C)cc1NC(=O)Cn1c(=O)nc(-c2ccccc2F)c2cc(Cl)ccc21", "activity change, positive = activation": "inactive: 1.97%"}
{"smiles": "O=c1nc2c(-c3ccc(F)cc3Cl)n[nH]n2c2ccccc12", "activity change, positive = activation": "inactive: 9.79%"}
{"smiles": "COCc1cc(C)nc2sc(C(=O)Nc3ccc(OC(F)(F)F)cc3)c(N)c12", "activity change, positive = activation": "inactive: -7.96%"}
{"smiles": "Cc1c(C(=O)OCC2CCCCC2)[nH]c2c1C(=O)CC(c1ccc(F)cc1)C2", "note": "(configuration not stated)", "activity change, positive = activation": "inactive: -11%"}
{"smiles": "CCCCn1c(=N)c(S(=O)(=O)c2ccc(Cl)cc2)cc2c(=O)n3cccc(C)c3nc21", "activity change, positive = activation": "inactive: 0.956%"}
{"smiles": "CC(C)(C)OC(=O)N1CCC(c2c(C(=O)NCc3ccccc3)cnn2-c2ccccc2)CC1", "activity change, positive = activation": "inactive: -4.41%"}
{"smiles": "CCc1ccc(CNC(=O)c2cc3c(=O)n(CC)c4ccccc4c3s2)cc1", "activity change, positive = activation": "inactive: 3.93%"}
{"smiles": "O=C(NC(=O)c1ccccc1)Nc1ccc(-n2nc(C(F)(F)F)cc2C(F)(F)F)cc1", "activity change, positive = activation": "inactive: 14.4%"}
{"smiles": "COc1ccc(OC)c(NC(=O)Cn2c(=O)n(CC3CCCO3)c(=O)c3cc(OC)c(OC)cc32)c1", "note": "(configuration not stated)", "activity change, positive = activation": "inactive: -12.3%"}
{"smiles": "COc1ccc(NC(=O)CN(C)S(=O)(=O)c2ccc3c(c2)CCC(=O)N3)c(OC)c1", "activity change, positive = activation": "inactive: -8.96%"}
{"smiles": "CCOc1ccccc1CNC(=O)CN1C(=O)CSc2ccc(S(=O)(=O)N3CCOCC3)cc21", "activity change, positive = activation": "inactive: -17.2%"}
{"smiles": "O=C(c1ccc2c(c1)CCN2S(=O)(=O)c1ccccc1)N1CCN(c2cccc(Cl)c2)CC1", "activity change, positive = activation": "inactive: -8.27%"}
{"smiles": "CCOC(=O)CNc1nc2ccccc2n2c(C)nnc12", "activity change, positive = activation": "inactive: 1.84%"}
{"smiles": "CCc1ccc(NC(=O)CSc2nc3c(sc4ccccc43)c(=O)n2CCCOC)cc1", "activity change, positive = activation": "inactive: -9.54%"}
